# Laboratory results from PubChem BioAssay AID1671194 (National Center for Advancing Translational Sciences (NCATS), 2021).
# About 240 (0.17%) of roughly 140,000 compounds were called active. The shares of active, inactive and inconclusive entries below differ from those in the screen. Calls come from the whole dose curve; as a rule, active = well fitted inhibition curve with a large enough effect; inconclusive = small, poorly fitted or top-dose-only effect; inactive = no such curve, though single readings can be large or run the other way. Where the call is inconclusive, the potency comes from a doubtful curve fit.
# Test: Primary qHTS assay for inhibitors of alpha-synuclein gene (SNCA) expression; note: nearly all actives have a fitted effect of over 45% in size
# Details: HEK-293 SNCA-luciferase knock-in, luminescence, 24 h; series mostly up to 57.2 µM
# Potency is the fitted concentration of half-maximal effect; tags give direction and shape of the fitted curve.
row,SMILES,Potency
1,COC(=O)c1cccc2nc([C@H]3CCN(Cc4ccccc4C)C3)oc12,"inconclusive: 12.6 µM [inhibitor, single point]"
2,O=C(C1CCN(c2ccnc3ccnn23)CC1)N1CCCCC1,inactive
3,O=C(N1CCCC(c2nnnn2-c2ccccc2)C1)C1(c2ccccc2)CC1 (stereo not given),inactive
4,CN1CCN(c2cc(-c3ccccc3Cl)ncn2)CC1,inactive
5,CC(C)C[C@H](NC(=O)c1cc2ccccc2s1)C(=O)N1CCN(C(=O)[C@H](CO)NS(=O)(=O)c2ccc(Cl)cc2Cl)CC1,"inconclusive: 42.9 µM [inhibitor, single point]"
6,COc1ccccc1-n1c(=O)c(C(=O)N2CCN(C(=O)Nc3ccccc3)CC2)nc2cccnc21,inactive
7,Fc1ccc(Nc2cc3c(cn2)CN(Cc2ccncc2)CCN3)cc1Cl,inactive
8,C=CCn1cc2c3c(cccc31)[C@H](CC(C)C)N[C@H](C(=O)NC1CCC1)C2,"inconclusive: 5.01 µM [inhibitor, full curve]"
9,COc1ccc(N2CCN(C(=O)CCn3c(=O)c4cccn4c4cccnc43)CC2)cc1,inactive
10,O=C(NC1CCN(Cc2ccccc2)CC1)c1ccc(Cn2c(=O)c3ccccc3n(Cc3ccccc3)c2=O)cc1,"inconclusive: 4.47 µM [inhibitor, partial curve, poor fit]"
11,COc1ccc(CCNC(=O)c2ccc3nc(C)cn3c2)cc1,inactive
12,COc1cccc(CC(=O)N2CCCN(c3cc(-c4ccc(Br)cc4)[nH]n3)CC2)c1,"inconclusive: 8.91 µM [inhibitor, partial curve]"
13,O=C(Cc1ccccc1)Nc1sc2c(c1C(=O)Nc1ccc(Cl)cc1)CCCC2,inactive
14,O=C1CC(c2noc(-c3ccccc3OC(F)(F)F)n2)CN1C1CCCCC1 (stereo not given),"inconclusive: 12.6 µM [inhibitor, partial curve, poor fit]"
15,COCC(=O)N1CCC(C(=O)N2CCC(N3Cc4ccccc4C3=O)CC2)CC1,inactive
16,CS(=O)(=O)N1CCC(C2CCN(C(=O)c3ccc(C#N)cc3)C2)CC1 (stereo not given),"inconclusive: 17.8 µM [inhibitor, single point]"
17,CC(=O)N1CCN(C(=O)c2ccc3nc(-c4ccncc4)oc3c2)CC1,inactive
18,O=C(c1ccco1)N1CCc2nc3cc(-c4ccccc4Cl)[nH]n3c(=O)c2C1,"inconclusive: 14.1 µM [inhibitor, partial curve, poor fit]"
19,CCOC(=O)N1CCC(COc2ccc3c(cnn3CC[S+](C)(=O)[O-])c2)CC1,inactive
20,Fc1ccccc1-c1nnc([C@H]2CCN(Cc3cccc(OC(F)(F)F)c3)C2)o1,"inconclusive: 4.47 µM [inhibitor, partial curve, poor fit]"
21,COc1ccc(-c2nc(SCC(=O)Nc3ccc4c(c3)OCO4)c(-c3ccc(OC)cc3)[nH]2)cc1,"inconclusive: 2.82 µM [inhibitor, single point]"
22,CC(C)CC(=O)NC1CCCc2c1[nH]c1c(Cl)cccc21 (stereo not given),"inconclusive: 25.1 µM [inhibitor, single point]"
23,COCc1ncc(C)n1CC1CCN(C(=O)CCc2ccc(OC)cc2)CC1,"inconclusive: 39.8 µM [inhibitor, single point]"

row,SMILES,Potency
1,O=C(C1CCCCC1)N1CC[C@](O)(c2ccccc2)[C@H](N2CCCC2)C1,inactive
2,COCC1CN(C(C)=O)CC12CCN(S(=O)(=O)c1ccc(C#N)cc1)CC2 (stereo not given),"inconclusive: 4.47 µM [inhibitor, partial curve, poor fit]"
3,CN(C)C[C@@H]1CN(C2CCOCC2)C[C@H]1NC(=O)c1ccc2c(c1)OCO2,"inconclusive: 8.91 µM [inhibitor, single point]"
4,Cc1cc2c(NC3CC(c4nnc(CN(C)C)n4C)C3)ncnc2s1 (stereo not given),"inconclusive: 22.4 µM [inhibitor, single point]"
5,COc1ccc(C(=O)N2CCC3(CC2)CC(N(Cc2ccccc2)C2CC2)CCO3)cn1 (stereo not given),"inconclusive: 28.2 µM [inhibitor, single point]"
6,Cc1cnc(C2CCOCC2)n1C1CCN(C(=O)Nc2ccc3c(c2)OCCO3)CC1,inactive
7,CCOc1ccc2c(n1)CCN(C(=O)c1ccccc1C)C2,"inconclusive: 7.08 µM [inhibitor, full curve]"
8,O=C(CN1C(=O)NC2(CCOCC2)C1=O)NC1CCCC1,"inconclusive: 12.6 µM [inhibitor, partial curve, poor fit]"
9,Fc1ccc(Nc2ncnc3onc(-c4ccc(Cl)cc4)c23)cc1Cl,"inconclusive: 39.8 µM [inhibitor, single point]"
10,COc1ccc(C)cc1NC(=O)NC(C)c1c(-n2cccc2)sc(C)c1C (stereo not given),"inconclusive: 39.8 µM [inhibitor, single point]"
11,Cn1ccnc1CNC(=O)CC(c1cccc(O)c1)c1ccccc1Cl (stereo not given),inactive
12,COc1ccccc1CN1CCNc2cnc(-c3ccccc3)cc2C1,inactive
13,COCCNC(=O)c1nc2cccnc2n(-c2ccccc2OC)c1=O,inactive
14,O=C1C(Cl)=C(NCCN2CCOCC2)C(=O)c2ncccc21,inactive
15,COc1ccccc1NC(=O)c1ccc(CN2C(=O)C(C)=C(c3ccc(C)c(C)c3)S2(=O)=O)cc1,"inconclusive: 39.8 µM [inhibitor, single point]"
16,COc1cccc(-c2c(C(=O)NCCc3ccccc3F)nc3sccn23)c1,"inconclusive: 39.8 µM [inhibitor, single point]"
17,CO[C@@](C(=O)N1CCOC[C@H]1c1ncc(-c2ccccc2)[nH]1)(c1ccccc1)C(F)(F)F,inactive
18,Cc1ccc(NS(=O)(=O)c2ccc3[nH]c4c(c3c2)CCCC4)cc1N(C)C,"inconclusive: 11.2 µM [inhibitor, single point]"
19,O=C(c1ccco1)N1CCC(n2cc(-c3nc(-c4ccccc4)no3)nn2)CC1,inactive
20,Cc1ccc(CCNS(=O)(=O)c2c(C)nc3sc(C)c(C)n3c2=O)cc1,"inconclusive: 7.08 µM [inhibitor, single point]"
21,COCC1CN(Cc2cc(Br)ccc2OC)CC12CCNCC2 (stereo not given),inactive
22,CC(=O)N1CCCC(c2[nH]ccc2C(=O)NCCc2cccs2)C1 (stereo not given),"inconclusive: 11.2 µM [inhibitor, partial curve, poor fit]"
